We go through five molecules from paper PMC4947185, “Identification of an ATP-controlled allosteric switch that controls actin filament nucleation by Arp2/3 complex” (Nature Communications, 2016).

For assay [1], the target named is T1, S. cerevisiae Arp3(L155C, L445D/F446D) (S. cerevisiae, UniProt P47117, L155C | L445D | F446D).
T1 construct: Arp3, S. cerevisiae; made on the arp3(L155C) template in pRS315; Stood in the assay as a subunit of the seven-subunit Arp2/3 complex; also called Arp3(L445D/F446D); Arp3(L445D and F446D); source: S. cerevisiae, subunit of the purified Arp2/3 complex
Put plainly: cross-linking; short-pitch crosslinking assay with ATP: 1 μM purified ScArp2/3 complex with Arp2(R198C)/Arp3(L155C), 25 μM BMOE, 100-200 μM ATP, 1 mM MgCl2, 50 mM KCl, 10 mM imidazole pH 7.0, 1 mM EGTA, 21 °C, 30 s to 5 min; anti-Arp2/anti-Arp3 western blot. Particulars: both partners purified. In general terms: A western blot detects proteins with antibodies after separation by electrophoresis.

The target of assay [2] is T2, S. cerevisiae Arp3(L155C) (S. cerevisiae, UniProt P47117, L155C).
T2 construct: Arp3, S. cerevisiae; arp3(L155C) with native promoter and terminator on pRS315, sole copy of Arp3; Stood in the assay as a subunit of the seven-subunit Arp2/3 complex, not as a free protein; also called ScArp3; source: S. cerevisiae, subunit of the purified Arp2/3 complex
The assay is described as above. Particulars: both partners purified.

B1: S. cerevisiae Arp2(R198C) (natural protein)
chain: not shown
notes: Arp2, S. cerevisiae; arp2(R198C) with native promoter and terminator on pRS317, sole copy of Arp2; Stood in the assay as a subunit of the seven-subunit Arp2/3 complex, not as a free protein; also called ScArp2; source: S. cerevisiae, subunit of the purified Arp2/3 complex
Turning to B1, in assay [1], the binding result is “binds”.

B2: S. cerevisiae Arp2(R198C, F203Y) (natural protein)
chain: not shown
notes: Arp2, S. cerevisiae; splayed interface mutation made on the arp2(R198C) template in pRS317; Stood in the assay as a subunit of the seven-subunit Arp2/3 complex; also called Arp2(F203Y); source: S. cerevisiae, subunit of the purified Arp2/3 complex
Regarding B2, in assay [2], the “fold crosslinking over the wild-type complex (1 min, with ATP)” value (shortened to “fold crosslinking”) was found to be 12 fold.

B3: S. cerevisiae Arp2(R198C, A207C) (natural protein)
chain: not shown
notes: Arp2, S. cerevisiae; splayed interface mutation made on the arp2(R198C) template in pRS317; Stood in the assay as a subunit of the seven-subunit Arp2/3 complex; also called Arp2(A207C); source: S. cerevisiae, subunit of the purified Arp2/3 complex
B3: in assay [2], the “fold crosslinking” value is 6 fold.

B4: S. cerevisiae Arp2(R198C, A207I) (natural protein)
chain: not shown
notes: Arp2, S. cerevisiae; splayed interface mutation made on the arp2(R198C) template in pRS317; Stood in the assay as a subunit of the seven-subunit Arp2/3 complex; also called Arp2(A207I); source: S. cerevisiae, subunit of the purified Arp2/3 complex
As for B4, in assay [2], the binding result is “binds”.

B5: S. cerevisiae Arp2(R198C, A207W) (natural protein)
chain: not shown
notes: Arp2, S. cerevisiae; splayed interface mutation made on the arp2(R198C) template in pRS317; Stood in the assay as a subunit of the seven-subunit Arp2/3 complex; also called […]W; Arp2(A207W); source: S. cerevisiae, subunit of the purified Arp2/3 complex
On to B5, for which the “fold crosslinking” value in assay [2] is 5 fold.
